# The shares of active, inactive and inconclusive entries below differ from those in the screen. For part of these data: Potencies of inconclusive entries are left out as doubtful fits. For part of these data: A note “side channel” means that the fit belongs to a control or component signal, not to the main read-out. Calls of active or inactive are those of the source. Unless noted, calls follow the shape of the full dose curve.
# Experiments:
# [1] = target: Estrogen receptor (Homo sapiens) (UniProt P03372); test: qHTS assay for small molecule agonists of estrogen receptor alpha signaling (AID 588514); conditions: ER-alpha-UAS-bla HEK293, beta-lactamase ratio, 18 h; activation: at 76.8 µM (top of the series), percent of full estradiol response, vehicle zero unless noted; also: potency is read from the fitted curve at half-maximal effect; nearly all actives have a fitted effect of over 70% in size
# Summary of the method: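 Cells were plated at 5000/well, incubated 4 hrs at 37 C, dosed with compound titration series, incubated 18 hrs at 37 C, loaded with CCF4 dye for 2 hrs at RT, then fluorescence was read.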
# [2] = target: Androgen receptor (Homo sapiens) (UniProt P10275); test: qHTS assay for small molecule agonists of androgen receptor signaling (AID 588515; active = well fitted curve in the direction sought with a large enough effect in the signal ratio, with a control signal flat; inconclusive = small, poorly fitted or top-dose-only effect, or effect the other way, or a change in a side signal; inactive = no such curve, though single readings can be large or run the other way; the % refers to the signal ratio; also: potency is read from the fitted curve at half-maximal effect); conditions: AR-UAS-bla HEK293, beta-lactamase ratio, agonist 16 h; activation: active compounds read high
# Summary of the method: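 EC50 and efficacy came from Hill fits of titrations (up to 92 uM) normalized to 30 nM R1881 as 100% and DMSO as 0%. Compound exposure was 16 h at 37 C on AR-UAS-bla HEK293 cells, with a 405/460/530 nm CCF4 fluorescence read.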
# [3] = target: Bile acid receptor (Homo sapiens) (UniProt Q96RI1); test: qHTS assay for small molecule agonists of farnesoid X receptor signaling (AID 588527); conditions: HEK293T FXR-UAS-bla, beta-lactamase ratio, 16 h; activation: active compounds read high; also: potency is read from the fitted curve at half-maximal effect
# Summary of the method: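 Agonist-mode beta-lactamase reporter in GeneBLAzer FXR-UAS-bla HEK293T cells, titration up to 92 uM, 16 h exposure at 37 C, CCF4 fluorescence. Response scaled to DMSO (0%) and 100 uM chenodeoxycholic acid (100%), then Hill-fitted for EC50 and efficacy.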
# [4] = target: Glucocorticoid receptor (Homo sapiens) (UniProt P04150); test: qHTS assay for small molecule agonists of glucocorticoid receptor signaling (AID 588532; active = well fitted curve in the direction sought with a large enough effect in the signal ratio, with a control signal flat; inconclusive = small, poorly fitted or top-dose-only effect, or a change in a side signal; inactive = no such curve, though single readings can be large or run the other way; the % refers to the signal ratio; also: potency is read from the fitted curve at half-maximal effect); conditions: HeLa MMTV-bla, beta-lactamase ratio, agonist, 18 h; activation: active compounds read high, percent of dexamethasone control, DMSO zero
# Summary of the method: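 Using MMTV-bla HeLa cells in medium with 1% stripped FBS and 25 mM HEPES, compounds were titrated and incubated overnight-length (18 h). Beta-lactamase cleavage of CCF4 was quantified by dual-emission fluorescence.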
# [5] = target: Peroxisome proliferator-activated receptor delta (Homo sapiens) (UniProt Q03181); test: qHTS assay for small molecule agonists of peroxisome proliferator-activated receptor delta signaling (AID 588534); conditions: HEK293T PPARdelta-UAS-bla, beta-lactamase ratio, 18 h; activation: at 76.7 µM (top of the series); also: potency is read from the fitted curve at half-maximal effect
# Summary of the method: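 Fluorescence from CCF4 substrate cleavage by beta-lactamase reporter, read 2 hrs at RT, measured agonist activity. Compounds were tested with 18 hrs exposure at 37 C. Concentration-response data fitted to Hill equation.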
# [6] = target: Peroxisome proliferator-activated receptor delta (Homo sapiens) (UniProt Q03181); test: qHTS assay for small molecule antagonists of peroxisome proliferator-activated receptor delta signaling (AID 588535; active = well fitted inhibition curve with a large enough effect in the signal ratio, with a control signal flat, not every such curve was filed as active; inconclusive = small, poorly fitted or top-dose-only effect, or effect the other way, or a change in a side signal; inactive = no such curve, though single readings can be large or run the other way; the % refers to the signal ratio); conditions: HEK293T PPARd-UAS-bla, beta-lactamase FRET ratio, 18 h; activity change, negative = inhibition: at 76.7 µM (top of the series)
# Summary of the method: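 HEK293T PPAR-delta-UAS-bla cells, 4000/well, 2% charcoal/dextran FBS; 5 h 37 C; cpd titration; 18 h 37 C; CCF4 2 h RT; FI 460/530 nm; Hill fit → IC50, efficacy.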
# [7] = target: Peroxisome proliferator-activated receptor gamma (Homo sapiens) (UniProt P37231); test: qHTS assay for small molecule agonists of peroxisome proliferator-activated receptor gamma signaling (AID 588536; active = well fitted curve in the direction sought with a large enough effect in the signal ratio, with a control signal flat, not every such curve was filed as active; inconclusive = small, poorly fitted or top-dose-only effect, or effect the other way, or a change in a side signal; inactive = no such curve, though single readings can be large or run the other way; the % refers to the signal ratio; also: potency is read from the fitted curve at half-maximal effect); conditions: HEK293 PPARg-UAS-bla, beta-lactamase ratio, 16 h; activation: at 76.7 µM (top of the series), percent of rosiglitazone response, DMSO as zero
# Summary of the method: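 Ratiometric blue/green fluorescence (405 nm excitation; 460 and 530 nm emission) from CCF4-loaded HEK293 reporter cells serves as signal. Exposure to test compounds lasts 16 h at 37 C in medium containing 1% charcoal/dextran-treated serum.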
# [8] = target: Peroxisome proliferator-activated receptor gamma (Homo sapiens) (UniProt P37231); test: qHTS assay for small molecule antagonists of peroxisome proliferator-activated receptor gamma signaling (AID 588537; active = well fitted inhibition curve with a large enough effect in the signal ratio, with a control signal flat, not every such curve was filed as active; inconclusive = small, poorly fitted or top-dose-only effect, or effect the other way, or a change in a side signal; the % refers to the signal ratio); conditions: HEK293 PPARg-UAS-bla, beta-lactamase ratio, antagonist mode; activity, negative = inhibition: at 76.8 µM (top of the series)
# Summary of the method: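 Antagonist mode, beta-lactamase reporter in HEK293; charcoal/dextran FBS 1%; 3000 cells/well, 37 C 6-6.5 h; cpd titration + rosiglitazone 50 nM final, 16 h 37 C; CCF4, 2 h RT; 460/530 nm; Hill fit → IC50, efficacy.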
# [9] = target: Vitamin D3 receptor (Homo sapiens) (UniProt P11473); test: qHTS assay for small molecule agonists of vitamin D receptor signaling (AID 588543); conditions: HEK293T VDR-UAS-bla, beta-lactamase ratio, 16 h; activation: at 76.8 µM (top of the series); also: potency is read from the fitted curve at half-maximal effect
# Summary of the method: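 Agonist-mode beta-lactamase reporter: HEK293T VDR-UAS-bla cells in charcoal-stripped 2% FBS, compound series 16 h 37 C, CCF4 2 h RT. EC50 from Hill fit, scaled against DMSO and 50 nM calcitriol control.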
# [10] = target: Retinoic acid receptor RXR-alpha (Homo sapiens) (UniProt P19793); test: qHTS assay for small molecule agonists of retinoid X receptor alpha signaling (AID 588544); conditions: HEK293T RXRa-UAS-bla, beta-lactamase reporter, 18 h; activation: at 76.7 µM (top of the series); also: potency is read from the fitted curve at half-maximal effect
# [11] = target: Thyroid hormone receptor beta (Homo sapiens) (UniProt P10828); test: qHTS assay for small molecule agonists of thyroid hormone receptor beta signaling (AID 588545); conditions: TR-UAS-bla GripTite HEK 293, beta-lactamase ratio, agonist mode, 18 h; activation: at 76.7 µM, percent of T3 response, DMSO as zero; also: potency is read from the fitted curve at half-maximal effect
# Summary of the method: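 TR-UAS-bla-GripTite HEK 293 cells in medium with 2% charcoal/dextran FBS, 0.1 mM NEAA and 1 mM sodium pyruvate were treated with titrated compounds for 18 hrs at 37 C. Beta-lactamase reporter was read with CCF4 dye (ex 405, em 460/530 nm); EC50 from Hill fits.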
# [12] = target: Retinoic acid receptor RXR-alpha (Homo sapiens) (UniProt P19793); test: qHTS assay for small molecule antagonists of retinoid X receptor alpha signaling (AID 588546; active = well fitted inhibition curve with a large enough effect in the signal ratio, with a control signal flat, not every such curve was filed as active; inconclusive = small, poorly fitted or top-dose-only effect, or effect the other way, or a change in a side signal; inactive = no such curve, though single readings can be large or run the other way; the % refers to the signal ratio; also: potency is read from the fitted curve at half-maximal effect); conditions: HEK293T RXRa-UAS-bla, beta-lactamase ratio, antagonist mode
# Summary of the method: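 Beta-lactamase reporter inhibition, read as CCF4 fluorescence ratio (ex 405, em 460/530 nm) after 2 h at RT. HEK293T UAS-bla cells, 2500/well, were stimulated with 9-cis-RA at 500 or 100 nM final alongside test compound for 18 h at 37 C.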
# [13] = target: Thyroid hormone receptor beta (Homo sapiens) (UniProt P10828); test: qHTS assay for small molecule antagonists of thyroid hormone receptor beta signaling (AID 588547; active = well fitted inhibition curve with a large enough effect in the signal ratio, with a control signal flat, not every such curve was filed as active; inconclusive = small, poorly fitted or top-dose-only effect, or effect the other way, or a change in a side signal; the % refers to the signal ratio; also: potency is read from the fitted curve at half-maximal effect); conditions: TR-UAS-bla HEK293, beta-lactamase ratio, antagonist mode, 18 h
# Summary of the method: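 Inhibition of T3-driven (0.4nM final) beta-lactamase reporter activity was measured over 0.59 nM to 92 uM compound after 18 h at 37 C. The cells were GripTite HEK293 TR-UAS-bla in charcoal/dextran-stripped serum, with CCF4 ratio read-out and IC50 from Hill fits.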
# [14] = qHTS assay for small molecule agonists of the antioxidant response element (ARE) signaling pathway (AID 651741; active = well fitted activation curve with a large enough effect in the signal ratio; inconclusive = small, poorly fitted or top-dose-only effect, or effect the other way, or a change in a side signal; the % refers to the signal ratio; also: potency is read from the fitted curve at half-maximal effect); conditions: HepG2 ARE-bla reporter, beta-lactamase FRET ratio, 16 h; activation: at 96 µM (top of the series)
# Summary of the method: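 Quantitative HTS in HepG2 cells stably expressing an ARE-beta-lactamase reporter; 16 h compound exposure at 37 C, followed by 2 h room-temperature incubation with LiveBLAzer B/G FRET substrate and fluorescence measurement.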
# [15] = qHTS assay for small molecule activators of the p53 signaling pathway (AID 651743; active = well fitted activation curve with a large enough effect in the signal ratio, not every such curve was filed as active; inconclusive = small, poorly fitted or top-dose-only effect, or a change in a side signal; the % refers to the signal ratio; also: potency is read from the fitted curve at half-maximal effect); conditions: HCT-116 p53RE-bla, beta-lactamase FRET ratio, 16 h; activation: active compounds read high
# Summary of the method: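 Read-out is fluorescence intensity from the LiveBLAzer B/G FRET substrate, added for 2 hours at room temperature after HCT-116 p53RE-bla cells had been incubated with compounds for 16 hours at 37 C.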
# [16] = qHTS assay for small molecule activators of the nuclear factor-kappa B (NF-kB) signaling pathway (AID 651749; active = well fitted activation curve with a large enough effect in the signal ratio; inconclusive = small, poorly fitted or top-dose-only effect, or a change in a side signal; the % refers to the signal ratio; also: potency is read from the fitted curve at half-maximal effect); conditions: NF-kB-bla ME-180 cells, beta-lactamase FRET ratio, 16 h; activation: active compounds read high
# Summary of the method: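 Readout: beta-lactamase reporter driven by an NF-kB response element, detected fluorescently as loss of FRET. Cells were the ME-180 line, treated 16 hr at 37C with pin-transferred compound.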
# [17] = qHTS assay for small molecule disruptors of the mitochondrial membrane potential - 1 hr assay (AID 651754); conditions: ratio change, negative = depolarisation: at 92.2 µM (top of the series); also: potency is read from the fitted curve at half-maximal effect; nearly all actives have a fitted effect of over 35% in size
# Summary of the method: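 HepG2, 2,000 cells/well, overnight attachment; cpd or DMSO 1 hr, 37C/5% CO2; Mito-MPS dye 30 min, 37C; fluorescence monomer (490/535) and aggregate (540/590).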
# [18] = qHTS assay to identify small molecules that stimulate interleukin-8 (IL-8) secretion (AID 651758; active = well fitted activation curve with a large enough effect in the signal ratio; inconclusive = small, poorly fitted or top-dose-only effect, or effect the other way, or a change in a side signal; the % refers to the signal ratio; also: potency is read from the fitted curve at half-maximal effect); conditions: HTRF ratio (665/615); activation: at 92.2 µM (top of the series)
# Summary of the method: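 Secreted IL-8 measured by TR-FRET sandwich (cryptate and XL665 antibodies) from THP-1 cells exposed to compound overnight (16 hrs, 37 C).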
# [19] = qHTS assay for small molecule antagonists of the retinoid-related orphan receptor gamma (ROR-gamma) signaling pathway - cell viability counter screen (AID 720652; active = well fitted curve in the direction sought with a large enough effect in the repeat runs; inconclusive = weak or mixed curves; inactive = no such curve, though single readings can be large; an effect the other way counts as inactive or inconclusive;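 also: potency is read from the fitted curve at half-maximal effect; compound exposure lasted 16 hr before ATP read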); conditions: RORgamma reporter cell line viability counter screen; series mostly up to 92.2 µM
# Summary of the method: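 Luminescence from CellTiter-Glo after 30 min at room temperature reported cellular ATP as the cytotoxicity measure. Cells were the CHO reporter line with doxycycline-induced ROR-gamma expression, exposed to compound for 16 hr at 37 C.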
# [20] = qHTS assay for cell viability of HEK293 cells (AID 743288; active = well fitted curve in the direction sought with a large enough effect; inconclusive = small, poorly fitted or top-dose-only effect, or another doubt; inactive = no such curve, though single readings can be large; an effect the other way counts as inactive or inconclusive; also: potency is read from the fitted curve at half-maximal effect; nearly all actives have a fitted effect of over 50% in size); conditions: ATP luminescence (CellTiter-Glo), 18 h; max response: active compounds read low
# Summary of the method: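 Total intracellular ATP, measured with a luciferase-coupled reagent, indicates the number of viable HEK293 cells. Exposure to test chemicals lasts 18 h at 37 C in 1,536-well format at 2,000 cells/well.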
# [21] = qHTS assay for cell viability of the p53RE-bla HCT-116 cell line (AID 743292; active = well fitted curve in the direction sought with a large enough effect; inconclusive = small, poorly fitted or top-dose-only effect, or another doubt; inactive = no such curve, though single readings can be large; an effect the other way counts as inactive or inconclusive; also: potency is read from the fitted curve at half-maximal effect; nearly all actives have a fitted effect of over 55% in size); conditions: p53RE-bla HCT-116 viability, ATP luminescence, 16 h; series mostly up to 95 µM
# Summary of the method: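 Compound-exposed HCT-116 (p53RE-bla) cells, 4,000 per well, were kept 16 h at 37 C following a 5 h preincubation. Cell number was estimated from total ATP by CellTiter-Glo luminescence read after 30 min at room temperature.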
# Tags tell the direction and shape of the fitted curve or compound fluorescence and quenching.
# Sequence of UniProt P10828 (P10828 whole entry, looked up): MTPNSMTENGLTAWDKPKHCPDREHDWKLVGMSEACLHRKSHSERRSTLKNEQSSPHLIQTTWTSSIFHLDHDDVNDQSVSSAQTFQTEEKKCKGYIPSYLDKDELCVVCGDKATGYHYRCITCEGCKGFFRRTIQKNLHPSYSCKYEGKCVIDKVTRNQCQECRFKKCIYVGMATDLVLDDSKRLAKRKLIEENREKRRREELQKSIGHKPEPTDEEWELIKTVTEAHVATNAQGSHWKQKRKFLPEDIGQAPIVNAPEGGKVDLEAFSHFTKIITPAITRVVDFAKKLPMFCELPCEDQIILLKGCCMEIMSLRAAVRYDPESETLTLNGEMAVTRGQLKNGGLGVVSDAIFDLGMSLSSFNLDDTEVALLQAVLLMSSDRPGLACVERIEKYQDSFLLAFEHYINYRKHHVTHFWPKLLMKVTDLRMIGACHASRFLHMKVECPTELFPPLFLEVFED
# Sequence of UniProt P19793 (P19793 whole entry, looked up): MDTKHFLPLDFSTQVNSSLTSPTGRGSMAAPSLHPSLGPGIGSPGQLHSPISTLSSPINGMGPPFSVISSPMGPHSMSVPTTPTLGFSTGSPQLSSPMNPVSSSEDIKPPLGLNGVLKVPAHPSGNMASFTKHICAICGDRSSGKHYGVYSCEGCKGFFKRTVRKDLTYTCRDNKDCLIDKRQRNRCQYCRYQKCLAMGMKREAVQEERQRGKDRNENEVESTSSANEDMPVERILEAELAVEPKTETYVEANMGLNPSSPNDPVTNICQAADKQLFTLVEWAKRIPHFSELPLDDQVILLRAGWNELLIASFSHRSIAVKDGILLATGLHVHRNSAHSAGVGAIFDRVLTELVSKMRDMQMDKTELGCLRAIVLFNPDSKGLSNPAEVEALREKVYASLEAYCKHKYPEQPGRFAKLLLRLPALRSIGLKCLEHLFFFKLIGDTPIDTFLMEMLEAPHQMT
# Sequence of UniProt Q03181 (Q03181 whole entry, looked up): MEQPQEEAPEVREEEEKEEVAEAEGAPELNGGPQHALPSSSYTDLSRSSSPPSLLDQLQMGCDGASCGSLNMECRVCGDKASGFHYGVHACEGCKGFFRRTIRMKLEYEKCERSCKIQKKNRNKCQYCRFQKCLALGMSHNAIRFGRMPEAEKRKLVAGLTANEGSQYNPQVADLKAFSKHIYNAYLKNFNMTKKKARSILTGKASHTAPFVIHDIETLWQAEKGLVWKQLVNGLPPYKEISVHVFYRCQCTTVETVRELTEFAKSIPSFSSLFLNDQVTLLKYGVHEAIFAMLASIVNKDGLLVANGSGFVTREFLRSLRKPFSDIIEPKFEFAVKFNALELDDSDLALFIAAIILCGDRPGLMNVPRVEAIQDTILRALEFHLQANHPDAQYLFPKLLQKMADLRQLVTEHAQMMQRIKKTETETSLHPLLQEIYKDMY
# Sequence of UniProt P03372 (P03372 whole entry, looked up): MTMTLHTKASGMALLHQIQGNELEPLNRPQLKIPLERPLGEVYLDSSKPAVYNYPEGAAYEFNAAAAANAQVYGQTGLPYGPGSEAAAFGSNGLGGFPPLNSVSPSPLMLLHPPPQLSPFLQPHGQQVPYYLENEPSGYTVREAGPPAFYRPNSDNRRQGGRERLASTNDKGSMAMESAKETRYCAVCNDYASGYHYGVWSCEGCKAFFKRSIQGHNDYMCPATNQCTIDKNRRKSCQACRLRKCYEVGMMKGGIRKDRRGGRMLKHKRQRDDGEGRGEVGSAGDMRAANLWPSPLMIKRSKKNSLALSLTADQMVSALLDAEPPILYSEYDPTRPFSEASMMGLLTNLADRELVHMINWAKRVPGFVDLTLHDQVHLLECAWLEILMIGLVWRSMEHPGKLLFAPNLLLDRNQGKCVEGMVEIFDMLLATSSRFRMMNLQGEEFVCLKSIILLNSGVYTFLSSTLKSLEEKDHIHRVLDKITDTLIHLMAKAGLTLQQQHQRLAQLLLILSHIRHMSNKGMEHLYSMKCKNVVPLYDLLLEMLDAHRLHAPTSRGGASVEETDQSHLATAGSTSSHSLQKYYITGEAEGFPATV
# Sequence of UniProt P10275 (P10275 whole entry, looked up): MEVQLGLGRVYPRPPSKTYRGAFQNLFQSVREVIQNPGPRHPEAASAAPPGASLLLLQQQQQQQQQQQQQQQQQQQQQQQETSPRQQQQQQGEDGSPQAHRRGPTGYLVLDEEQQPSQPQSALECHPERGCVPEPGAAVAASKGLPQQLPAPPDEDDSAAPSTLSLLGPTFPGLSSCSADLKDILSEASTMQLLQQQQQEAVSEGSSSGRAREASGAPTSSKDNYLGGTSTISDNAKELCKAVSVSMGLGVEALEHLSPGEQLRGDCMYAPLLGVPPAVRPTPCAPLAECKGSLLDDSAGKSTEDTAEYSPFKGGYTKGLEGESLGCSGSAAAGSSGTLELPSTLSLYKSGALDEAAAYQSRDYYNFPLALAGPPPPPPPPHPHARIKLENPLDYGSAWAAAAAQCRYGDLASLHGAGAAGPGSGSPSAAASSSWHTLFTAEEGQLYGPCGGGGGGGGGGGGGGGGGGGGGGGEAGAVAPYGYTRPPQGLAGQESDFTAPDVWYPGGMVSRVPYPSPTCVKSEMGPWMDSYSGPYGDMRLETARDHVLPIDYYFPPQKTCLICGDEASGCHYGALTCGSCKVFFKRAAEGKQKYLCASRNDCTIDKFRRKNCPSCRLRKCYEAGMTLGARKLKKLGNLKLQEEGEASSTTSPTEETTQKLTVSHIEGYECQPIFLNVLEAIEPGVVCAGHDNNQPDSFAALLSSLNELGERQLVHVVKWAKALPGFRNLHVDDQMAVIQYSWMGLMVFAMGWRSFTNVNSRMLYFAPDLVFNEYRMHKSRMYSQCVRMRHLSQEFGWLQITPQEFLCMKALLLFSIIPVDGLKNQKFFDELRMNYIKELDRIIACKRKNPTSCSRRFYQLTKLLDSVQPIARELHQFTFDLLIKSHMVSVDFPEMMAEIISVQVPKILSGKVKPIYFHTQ
compound,measurement,setting,value
C[C@@H]1CC[C@@]2(OC1)O[C@H]1[C@@H](O)[C@H]3[C@@H]4CC[C@H]5C[C@@H](O[C@@H]6O[C@H](CO)[C@H](O[C@@H]7O[C@H](CO)[C@@H](O)[C@H](O[C@@H]8OC[C@@H](O)[C@H](O)[C@H]8O)[C@H]7O[C@@H]7O[C@H](CO)[C@@H](O)[C@H](O[C@@H]8O[C@H](CO)[C@@H](O)[C@H](O)[C@H]8O)[C@H]7O)[C@H](O)[C@H]6O)[C@H](O)C[C@]5(C)[C@H]4CC[C@]3(C)[C@H]1[C@@H]2C,Potency,[1],"inconclusive [side channel, falling, single point]"
same,Potency,[2],"inconclusive [cytotoxic, side channel, partial curve]"
same,Potency,[3],"inconclusive [side channel, falling, partial curve, poor fit]"
same,Potency,[4],"inconclusive [side channel, falling, partial curve, poor fit]"
same,Potency,[5],"inconclusive [rising, partial curve]"
same,"activity change, negative = inhibition",[6],inconclusive: -73.5%
same,Potency,[7],"inconclusive [side channel, falling, full curve]"
same,Potency,[8],"inconclusive [cytotoxic, side channel, partial curve, poor fit]"
same,Potency,[9],"inconclusive [side channel, falling, partial curve]"
same,Potency,[10],"inconclusive [cytotoxic, side channel, full curve, poor fit]"
same,Potency,[11],"inconclusive [side channel, falling, full curve]"
same,Potency,[12],"inconclusive [cytotoxic, side channel, partial curve, poor fit]"
same,Potency,[13],"inconclusive [cytotoxic, side channel, full curve]"
same,Potency,[14],"inconclusive [cytotoxic, side channel, full curve]"
same,Potency,[15],"inconclusive [side channel, falling, full curve]"
same,Potency,[16],"inconclusive [side channel, falling, full curve]"
same,Potency,[17],active: 26.6 µM
same,Potency,[18],"inconclusive [inhibitor, partial curve]"
same,Potency,[19],active: 11.9 µM
same,Potency,[20],active: 25.1 µM
same,Potency,[21],active: 35.5 µM

# — PubChem BioAssay (NCATS)
